# According to publication PMC6212790:
# The other results are listed elsewhere or left out. At the low end of the ranking, values are background and their order means little.
# Biological target: T1, GST-Rok-C97-191 (UniProt O34857)
# T1 sequence: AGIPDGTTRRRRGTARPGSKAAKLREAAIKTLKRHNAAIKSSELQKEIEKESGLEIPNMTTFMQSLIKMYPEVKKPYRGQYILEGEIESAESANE
# Experiment: protein binding microarray;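 further: rank score from −0.5 (least bound) to 0.5 (best bound)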
# Conditions: Rok is a gene silencer of Bacillus subtilis; high values mean tight binding; most listed sequences are background and not binding sites; double strand, one strand shown
row,Sequence,binding signal
1,AAACGGGA,-0.108 E-score
2,AAGGTGGT,-0.104 E-score
3,CACCGCCA,-0.201 E-score
4,AATTGGCT,0.106 E-score
5,CTAGTCCA,0.107 E-score
6,TAGTCACA,0.123 E-score
7,ACTATGAG,-0.0649 E-score
8,AGGCACCG,-0.232 E-score
9,CCAAGCGA,-0.195 E-score
10,CGGAGAAG,-0.176 E-score
11,AACTGATC,0.044 E-score
12,CGCCTCAG,-0.214 E-score
13,ACTCTTAG,0.131 E-score
14,CGAGGACA,-0.193 E-score
15,GCGTTCAA,-0.08 E-score
16,CTGCGCCC,-0.144 E-score
17,CCATACCA,0.0276 E-score
18,TAATCGTA,0.126 E-score
19,AACACATC,-0.0947 E-score
20,CATCCTAG,-0.147 E-score
21,ATAGTGAC,0.0622 E-score
22,CCTTTGCA,-0.141 E-score
23,CAGTGGGG,-0.274 E-score
24,GGGAATCA,-0.102 E-score
25,AGGCACTA,-0.129 E-score

row,Sequence,binding signal
1,CAGAATCG,-0.0227 E-score
2,AGCGGAGC,-0.153 E-score
3,CGGCGACA,-0.294 E-score
4,CGTCGAAA,0.106 E-score
5,CTTCGTGC,-0.109 E-score
6,GAATTCTC,0.0595 E-score
7,ATATCGAT,0.297 E-score
8,CTTGGCGC,-0.298 E-score
9,GTGGGGTA,-0.0745 E-score
10,CAAGTCGA,-0.137 E-score
11,AGTTGGCG,-0.123 E-score
12,CTATTCAC,0.0435 E-score
13,CTGGTGTA,-0.103 E-score
14,CCAGATCG,-0.208 E-score
15,AGCTTGAG,-0.0747 E-score
16,GCGCCCGA,-0.239 E-score
17,GTTTAGCA,-0.0989 E-score
18,ACAAGCAC,0.019 E-score
19,AAATCTGA,0.0714 E-score
20,GGGCTAAA,0.0429 E-score
21,GATACCTA,0.32 E-score
22,CGCCGGCA,-0.274 E-score
23,TATTTCCA,0.228 E-score
24,AAAAAACT,0.196 E-score
25,CGAGCTTC,-0.236 E-score

row,Sequence,binding signal
1,AGGGAGCA,-0.177 E-score
2,GAGCTAGC,0.0567 E-score
3,AACGCTGG,-0.171 E-score
4,TCGCTAGA,0.16 E-score
5,GGTCTGGA,-0.12 E-score
6,AGAGGGCA,-0.198 E-score
7,AACGCCGA,-0.144 E-score
8,GCTCATCA,-0.0849 E-score
9,TCAGGGCA,-0.0631 E-score
10,AATGCGAG,0.0809 E-score
11,AGGTATTA,0.201 E-score
12,ACTCGCGA,0.0858 E-score
13,AGCAAGAT,0.0224 E-score
14,AAGCAGCG,-0.259 E-score
15,ATCCGACA,0.0458 E-score
16,AATTCGCC,0.0105 E-score
17,AAATTTTA,0.374 E-score
18,CGCGCGAC,0.00307 E-score
19,TACCCCAA,0.0587 E-score
20,AAAGAGAT,0.0526 E-score
21,CGTGAGTC,-0.19 E-score
22,ATCATGGG,-0.118 E-score
23,ACACTGTG,0.161 E-score
24,ACCACCGT,-0.0734 E-score
25,CATGGTGA,0.0231 E-score

row,Sequence,binding signal
1,CTCGTAAC,0.0109 E-score
2,GATATTAC,0.328 E-score
3,AGTTGGGG,-0.12 E-score
4,AAGCTCAG,-0.0431 E-score
5,AAGACTCC,-0.0595 E-score
6,TACTCGGA,-0.00726 E-score
7,GTCTCCAA,-0.229 E-score
8,CTTCGCAA,-0.12 E-score
9,AGCGATAG,0.03 E-score
10,AGTGCCAA,0.0368 E-score
11,CCCCGAAC,-0.298 E-score
12,TCCGCGGA,0.00675 E-score
13,AAATTGAT,0.0406 E-score
14,ATGGCCGC,-0.305 E-score
15,AAACCCAA,0.0303 E-score
16,GAAGGCCC,-0.346 E-score
17,CCCCCTAC,-0.329 E-score
18,CGTAACGA,0.0667 E-score
19,GCTGTGCC,-0.166 E-score
20,CTCCAGCC,-0.0781 E-score
21,AGTGTGGA,-0.0965 E-score
22,ACGAAAGC,-0.163 E-score
23,GGTAATTA,0.395 E-score
24,TCCATACA,0.0803 E-score
25,CGTTCGCA,-0.219 E-score

row,Sequence,binding signal
1,TCTTCAAA,0.0119 E-score
2,AGCCGTAG,0.0411 E-score
3,ATCCTAGG,-0.0974 E-score
4,AGAGTATC,-0.0662 E-score
5,AACCCCCT,-0.308 E-score
6,ATCTCGTG,-0.163 E-score
7,ATCCAGCC,-0.213 E-score
8,CTTGATGA,-0.166 E-score
9,CCCCGGAG,-0.378 E-score
10,GTAAGCTA,0.149 E-score
11,CTCATATA,0.181 E-score
12,ACCCGCAG,-0.149 E-score
13,GAACCACC,0.0125 E-score
14,AGCATCAC,-0.0613 E-score
15,GACCCGGC,-0.278 E-score
16,AATGGAAT,-0.0573 E-score
17,TCTCGGAA,0.127 E-score
18,AGCGGAAA,0.118 E-score
19,GATCAGGC,-0.106 E-score
20,AATGCGGC,0.0769 E-score
21,CGACTGTC,-0.12 E-score
22,AAGCCGAA,-0.0917 E-score
23,CCAGGCAA,-0.149 E-score
24,CGGTGGGA,-0.129 E-score
25,CTTAGCAC,0.0243 E-score

row,Sequence,binding signal
1,ATAACAGA,-0.0541 E-score
2,ACTCAAGA,-0.0762 E-score
3,ACGTTATA,0.17 E-score
4,AGTTAGGG,-0.0845 E-score
5,GCTTGGCA,-0.0903 E-score
6,ATTACGCA,0.139 E-score
7,CTATTGGC,-0.0724 E-score
8,AAGTGATC,-0.13 E-score
9,GCGATGCC,-0.131 E-score
10,ATTGGCAA,-0.139 E-score
11,ACACTACG,-0.0248 E-score
12,ACTAGAGT,0.0935 E-score
13,ACCCCTAA,-0.152 E-score
14,AGCCCTAA,-0.0469 E-score
15,GGAACTAC,0.254 E-score
16,GAAGGTAC,-0.0392 E-score
17,CCTTCACA,-0.0294 E-score
18,AGAATAGA,0.0799 E-score
19,AATCGCAG,0.00983 E-score
20,AATCGGAT,-0.00728 E-score
21,CCCCCCGG,-0.283 E-score
22,AGGACCTA,0.0786 E-score
23,GTCATCAC,-0.236 E-score
24,CATGCCAC,-0.0775 E-score
25,CGTCTTTA,-0.0447 E-score

row,Sequence,binding signal
1,CCCTAAGG,-0.308 E-score
2,CGAGATAG,-0.00362 E-score
3,CACCGCTC,-0.0761 E-score
4,GATAAAGA,0.0459 E-score
5,AGTTAACC,-0.00883 E-score
6,AAGGCGAG,-0.307 E-score
7,AACTTCGG,-0.0354 E-score
8,AGTTCGCG,-0.00515 E-score
9,CCTTATAC,0.0775 E-score
10,CCTATCTA,0.319 E-score
11,CACTGTCA,-0.157 E-score
12,AAAAATAT,0.271 E-score
13,ATGTCCGA,-0.083 E-score
14,AATCGCTC,-0.0608 E-score
15,CGGTCCAA,-0.143 E-score
16,ACGAGGCA,-0.269 E-score
17,ATCTAGTC,0.287 E-score
18,AATGCCGT,-0.019 E-score
19,ACACAACG,-0.0102 E-score
20,GAGCTAGA,0.107 E-score
21,GACTATAC,0.082 E-score
22,CCCATGGC,-0.285 E-score
23,CATGTGGG,-0.0551 E-score
24,CAATCCAA,0.104 E-score
25,GACGCCTA,-0.0181 E-score

row,Sequence,binding signal
1,ATGGGCGG,-0.156 E-score
2,GACTAAAA,0.144 E-score
3,ATACGCAC,0.0715 E-score
4,ACTCTTCT,-0.11 E-score
5,GACACCCA,-0.209 E-score
6,CGGCGTCA,-0.0944 E-score
7,CTGCGTAC,-0.112 E-score
8,CACTCCAC,-0.169 E-score
9,CCGTCTAG,-0.239 E-score
10,CGTCATAA,-0.0131 E-score
11,CCGTACAA,0.18 E-score
12,CTTAGGGA,-0.141 E-score
13,AAGTCACT,-0.167 E-score
14,ATGATGGA,0.00571 E-score
15,ACGTCTGA,-0.0393 E-score
16,TCTATGCA,0.172 E-score
17,GAGGGCGA,-0.261 E-score
18,TCCTAGGA,0.0164 E-score
19,AGCAGAAT,-0.0636 E-score
20,ACAATCCG,-0.113 E-score
21,AGGGCTTC,-0.321 E-score
22,CTGCCTGC,-0.262 E-score
23,ATAAGTGC,0.186 E-score
24,CTGGATGA,-0.102 E-score
25,TCATGTAA,-0.0761 E-score

row,Sequence,binding signal
1,CTAAAAAG,0.0202 E-score
2,GCTCGTAA,0.0484 E-score
3,AGAAATAC,0.311 E-score
4,GAGGGTGA,-0.112 E-score
5,AGAATGAA,0.079 E-score
6,AGCAGGAA,-0.14 E-score
7,ACGGGTTC,-0.0135 E-score
8,ATAGCTCG,0.101 E-score
9,ACTGTCAA,0.0403 E-score
10,CAATAGCG,0.018 E-score
11,GATGGCCC,-0.293 E-score
12,AGAGAGCA,-0.148 E-score
13,ATCAATTC,0.142 E-score
14,AAACTGGA,0.0677 E-score
15,AAGCGCAC,-0.167 E-score
16,AAAAAGCA,-0.0319 E-score
17,AGAGTGGC,-0.138 E-score
18,AAGAAGCT,-0.0225 E-score
19,CACGCCAA,-0.0207 E-score
